From PubChem BioAssay AID1347165 (National Center for Advancing Translational Sciences (NCATS), 2019)
Screen size: about 220,000 compounds; about 5,700 (2.6%) were called active. Inconclusive results, whose numbers are uncertain, are shown with a selection of clear calls. Calls come from the whole dose curve; as a rule, active = well fitted inhibition curve with a large enough effect; inconclusive = small, poorly fitted or top-dose-only effect; inactive = no such curve, though single readings can be large or run the other way. Where the call is inconclusive, the potency comes from a doubtful curve fit.

Biological target: Lysine-specific demethylase 5B (Homo sapiens) (UniProt Q9UGL1)
Assay: Primary screen for KDM5B Histone Demethylases FDH-coupled qHTS; note: nearly all actives have a fitted effect of over 70% in size; for activity change, negative = inhibition: 0% is about no effect
Conditions: FDH-coupled NADH fluorescence (FDH is formaldehyde dehydrogenase); activity change, negative = inhibition: at 57.7 µM (top of the series) unless noted
Method in brief: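 Coupled FDH/NAD⁺ fluorescence readout. KDM5BΔAP 200 nM final; compound titration, 10 min RT preincubation; substrate mix 12.5 µM H3K4me3, 25 µM 2-OG, 50 µM Fe(II), 100 µM ascorbate, 0.25 mM NAD⁺, 0.25 U/mL FDH; ΔRFU over 30 min.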
Potency is the fitted concentration of half-maximal effect; tags give direction and shape of the fitted curve.

Sequence of UniProt Q9UGL1 (Q9UGL1 whole entry, looked up): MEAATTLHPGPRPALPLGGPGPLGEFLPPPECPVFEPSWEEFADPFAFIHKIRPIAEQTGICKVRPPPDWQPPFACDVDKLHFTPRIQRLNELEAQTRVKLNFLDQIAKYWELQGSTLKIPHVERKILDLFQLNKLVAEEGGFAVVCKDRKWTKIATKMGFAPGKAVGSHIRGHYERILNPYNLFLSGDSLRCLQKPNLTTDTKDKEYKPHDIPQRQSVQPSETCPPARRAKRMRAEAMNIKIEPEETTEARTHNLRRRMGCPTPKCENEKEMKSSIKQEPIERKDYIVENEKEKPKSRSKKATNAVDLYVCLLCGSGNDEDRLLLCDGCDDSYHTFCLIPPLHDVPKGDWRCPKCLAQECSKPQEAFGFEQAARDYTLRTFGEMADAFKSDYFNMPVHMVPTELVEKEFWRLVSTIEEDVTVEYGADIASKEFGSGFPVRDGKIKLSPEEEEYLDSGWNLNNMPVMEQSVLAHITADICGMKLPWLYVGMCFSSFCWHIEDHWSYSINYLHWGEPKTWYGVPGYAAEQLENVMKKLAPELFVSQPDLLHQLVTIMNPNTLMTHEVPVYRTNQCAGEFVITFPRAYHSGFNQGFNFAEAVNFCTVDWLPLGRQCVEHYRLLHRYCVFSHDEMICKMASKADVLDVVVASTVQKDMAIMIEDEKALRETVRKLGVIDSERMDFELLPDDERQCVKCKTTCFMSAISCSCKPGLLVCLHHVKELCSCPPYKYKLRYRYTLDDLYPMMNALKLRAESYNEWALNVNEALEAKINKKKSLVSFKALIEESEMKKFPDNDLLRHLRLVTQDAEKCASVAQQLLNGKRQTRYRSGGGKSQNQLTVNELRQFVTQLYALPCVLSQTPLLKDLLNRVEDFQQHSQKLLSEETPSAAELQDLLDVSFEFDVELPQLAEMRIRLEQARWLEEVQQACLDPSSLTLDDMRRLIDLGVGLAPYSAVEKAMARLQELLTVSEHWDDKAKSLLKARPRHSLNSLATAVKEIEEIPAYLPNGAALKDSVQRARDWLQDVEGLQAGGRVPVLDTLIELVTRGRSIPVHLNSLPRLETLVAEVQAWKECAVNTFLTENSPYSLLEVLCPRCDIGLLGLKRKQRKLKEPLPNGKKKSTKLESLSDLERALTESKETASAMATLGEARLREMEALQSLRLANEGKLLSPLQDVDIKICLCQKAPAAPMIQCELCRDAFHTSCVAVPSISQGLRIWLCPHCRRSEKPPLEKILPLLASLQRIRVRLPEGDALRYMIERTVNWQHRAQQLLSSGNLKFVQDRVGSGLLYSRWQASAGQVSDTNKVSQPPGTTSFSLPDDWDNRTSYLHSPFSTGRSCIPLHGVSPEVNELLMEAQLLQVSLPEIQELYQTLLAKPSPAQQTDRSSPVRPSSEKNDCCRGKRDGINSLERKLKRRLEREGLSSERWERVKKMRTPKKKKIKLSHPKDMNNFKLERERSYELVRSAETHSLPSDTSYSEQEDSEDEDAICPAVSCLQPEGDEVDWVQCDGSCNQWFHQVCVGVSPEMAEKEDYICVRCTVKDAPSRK

| SMILES | Potency | activity change, negative = inhibition |
| --- | --- | --- |
| COc1ccccc1Nc1nc(-c2sc(NC(C)=O)nc2C)cs1 | inconclusive: 28.2 µM [inhibitor, partial curve, poor fit] | – |
| COC(=O)c1ccccc1NS(=O)(=O)c1c(C)cc(C)cc1C | inactive | – |
| Cc1ccc2nc(C)cc(C(=O)NC3CCS(=O)(=O)C3)c2c1 (stereo not drawn) | inconclusive: 31.6 µM [inhibitor, partial curve, poor fit] | – |
| CC(=O)N1c2ccccc2C(=O)C1N1CCN(c2cc(Cl)ccc2C)CC1 (stereo not drawn) | inconclusive: 20 µM [inhibitor, partial curve, poor fit] | – |
| COCCNC(=O)[C@@H]1C[C@@H](O)CN1C1CCN(C(=O)Cc2ccccc2)CC1 | inactive | – |
| CC1=C[C@@H](CNS(=O)(=O)c2cccc(F)c2)[C@H](C(C)C)C[C@H]1CC(=O)O | inactive | – |
| CC(C(=O)N(C)Cc1ccccc1)S(=O)(=O)Cc1cccc(Cl)c1 (stereo not drawn) | inactive | – |
| CC(=O)c1ccc(N2CCN(S(=O)(=O)c3ccc4[nH]c5c(c4c3)CCCCC5)CC2)cc1 | inconclusive: 4.47 µM [inhibitor, partial curve, poor fit] | – |
| CCC(C)Cc1nc(N)c(C#N)c(-c2ccccc2)c1C (stereo not drawn) | inactive | – |
| COc1ccc(-c2cc(C(F)(F)F)n3nc(C(=O)Nc4sc5c(c4C#N)CCC(C)C5)cc3n2)cc1OC (stereo not drawn) | inconclusive: 39.8 µM [inhibitor, single point] | – |
| O=C(c1cc(=O)[nH]c2ccccc12)N1CCC(CCc2ccc(O)cc2)CC1 | inconclusive: 39.8 µM [inhibitor, single point] | – |
| CCOc1ccccc1-c1noc(-c2nnn3c2COC(c2ccc(Cl)cc2)C3)n1 (stereo not drawn) | inconclusive: 22.4 µM [inhibitor, single point] | – |
| CCC(C)NC(=O)c1[nH]c2cc(OC)ccc2c1Sc1ccc(C)cc1 (stereo not drawn) | inconclusive: 20 µM [inhibitor, partial curve, poor fit] | – |
| CCCCn1cnc2cccnc21 | inactive | – |
| CC(C)n1nc(C(=O)OCC(=O)Nc2ccc(S(=O)(=O)N(C)C)cc2)c2ccccc2c1=O | inactive | – |
| N#CC[n+]1cccc(-c2ccccc2)c1 | inconclusive: 12.6 µM [inhibitor, partial curve, poor fit] | – |
| Nc1nc(C2CC(O)C2)cc(N2CCc3sccc3C2)n1 (stereo not drawn) | inconclusive: 20 µM [inhibitor, partial curve] | – |
| O=C(c1ccc(C(F)(F)F)cc1)N1CCOC[C@H](Oc2cccnc2)C1 | inactive | – |
| CCc1c(C)sc(NC(=O)C(F)(F)F)c1C#N | inconclusive: 39.8 µM [inhibitor, single point] | – |
| COc1ccc2c(c1)c1c(c(=O)n(Cc3ccccc3)c(=O)n1Cc1ccc(C)cc1)n2C | inconclusive: 25.1 µM [inhibitor, partial curve, poor fit] | – |
| Cc1ccc(-n2ncc(C(=O)NCCCN3CCc4ccccc4C3)c2C2CCN(C(=O)OC(C)(C)C)CC2)cc1C | inconclusive: 1.41 µM [inhibitor, full curve, poor fit] | – |
| O=C(C1c2ccccc2CC(=O)N1Cc1ccccc1)N1CCN(c2ccccn2)CC1 (stereo not drawn) | inconclusive: 31.6 µM [inhibitor, partial curve, poor fit] | – |
| Cc1cc(=O)oc2ccc(OCC(=O)Nc3ccc4c(c3)OCCO4)cc12 | inconclusive: 39.8 µM [inhibitor, single point] | – |

| SMILES | Potency | activity change, negative = inhibition |
| --- | --- | --- |
| Cc1ccccc1C(=O)Nc1ccc(C(=O)OCc2cc(=O)n3nc(C4CC4)sc3n2)cc1 | inconclusive: 39.8 µM [inhibitor, single point] | – |
| O=c1c2c3c(nn2ccn1Cc1ccc(Cl)cc1)CCCC3 | inconclusive: 22.4 µM [inhibitor, single point] | – |
| O=C(NCc1ccco1)[C@@H]1Cc2nc[nH]c2CN1Cc1cccnc1 | inconclusive: 25.1 µM [inhibitor, partial curve, poor fit] | – |
| CCc1cc(=O)oc2c(C)c(OCC(=O)NCCCN3CCOCC3)ccc12 | inconclusive: 14.1 µM [inhibitor, partial curve, poor fit] | – |
| Cc1cc(C(=O)OC(C(=O)N(C)C)c2ccccc2)on1 (stereo not drawn) | inactive | – |
| COC(=O)C1=C(c2ccccc2)c2ccccc2S(=O)(=O)N1CC(=O)Nc1cccc(C(C)=O)c1 | – | inconclusive: -34.2% [inhibitor] |
| CN(C)C[C@@H]1CN(C2CCOCC2)C[C@H]1NC(=O)c1ccc(F)c(Cl)c1 | inconclusive: 25.1 µM [inhibitor, partial curve, poor fit] | – |
| Cn1c(=O)c2sccc2n2c(CCCC(=O)N3CCN(c4ccccc4F)CC3)nnc12 | inactive | – |
| CCOc1ccc(S(=O)(=O)Nc2cccc(C(=O)NC3CCN(C(C)C)CC3)c2)cc1 | inconclusive: 22.4 µM [inhibitor, single point] | – |
| C=CCCC(=O)NC1CCN(Cc2cccc(C(F)(F)F)c2)CC1 | inactive | – |
| CCCOc1ccccc1CNC1CC1 | inactive | – |
| Nn1c(SCc2ncc(-c3ccccc3)o2)nnc1-c1ccc(Cl)cc1 | inconclusive: 39.8 µM [inhibitor, single point] | – |
| Cc1ccc(C)c(C(=O)N2[C@@H]3CC[C@H]2CC(NC(=O)c2cnc(C)cn2)C3)c1 (stereo partly drawn) | inactive | – |
| CCn1cnc2c1c(=O)n(CC(=O)OCCOc1ccccc1)c(=O)n2Cc1ccccc1 | inactive | – |
| COc1ccc2c(c1)c(CN1CC[C@H](CO)[C@H](N(C)C)C1)cn2C(C)C | inconclusive: 39.8 µM [inhibitor, single point] | – |
| CN(C)c1ccc(/C=N\NC(=O)c2cccc3cc[nH]c23)cc1 | inconclusive: 31.6 µM [inhibitor, single point] | – |
| O=C(NC(c1ccccc1)c1ccccc1)c1cnc2c(c1)N(Cc1ccccc1)CCC2 | inconclusive: 39.8 µM [inhibitor, partial curve, poor fit] | – |
| O=C(NC1CC1)c1ccc2nnc(-c3cccc(OC(F)(F)F)c3)n2c1 | inconclusive: 63.1 µM [inhibitor, partial curve, poor fit] | – |
| O=C(Cc1ccccc1F)NC1CCN(c2cc(-c3cccs3)[nH]n2)C1 (stereo not drawn) | inconclusive: 14.1 µM [inhibitor, partial curve, poor fit] | – |
| CC1CCN(c2ncnc3c2cnn3-c2ccc(F)cc2)CC1 | inconclusive: 25.1 µM [inhibitor, partial curve, poor fit] | – |
| Fc1ccc(NCc2cccn2-c2nnc(N3CCOCC3)s2)cc1 | inconclusive: 25.1 µM [inhibitor, single point] | – |
| CC(=O)c1ccc(-c2cccc(Cl)c2Cl)o1 | inactive | – |
| O=C(NCCc1cccs1)c1ccc(Cn2c(SCc3ccc(F)cc3)nc3cccnc32)cc1 | inconclusive: 35.5 µM [inhibitor, partial curve, poor fit] | – |

| SMILES | Potency | activity change, negative = inhibition |
| --- | --- | --- |
| CC1CCC2(CCc3cc4c5c(c(=O)oc4cc3O2)CCC5)CC1 (stereo not drawn) | inconclusive: 28.2 µM [inhibitor, partial curve, poor fit] | – |
| COc1ccc(CNCc2cccc3[nH]ccc23)cc1 | inconclusive: 31.6 µM [inhibitor, single point] | – |
| COc1ccc(C(=O)CN2CCN(S(=O)(=O)c3ccc(C(C)C)cc3)CC2)cc1 | inconclusive: 25.1 µM [inhibitor, partial curve, poor fit] | – |
| CC(C)(C(=O)NCCc1ccccn1)C1CCOCC1 | inactive | – |
| Cc1nc2cc(C(=O)Nc3ccc(N(C)C)cc3)ccc2n1-c1ccccc1 | inactive | – |
| C=CC[N+]1(CC#CCOC(c2ccccc2)c2ccccc2)CCCCC1 | inactive | – |
| CCn1cc(CN(C)C(=O)[C@H]2CN(Cc3ccccc3)C[C@H]2C(=O)O)c(C)n1 | inactive | – |
| Cc1cc(C)c([S+](=O)([O-])c2nnn3c2nc(N2CCC(F)CC2)c2ccccc23)c(C)c1 | active: 79.4 µM | – |
| O=C(O)CCCC(=O)N[C@H]1CO[C@H]2[C@@H]1OC[C@@H]2Nc1nccc(-c2ccc3c(c2)OCO3)n1 | active: 28.2 µM | – |
| O=C(CCc1nc2ccccc2s1)NCCc1ccccc1F | inactive | – |
| COC(=O)c1ccc(NC(=O)c2cc(-c3cc(C)sc3C)nc3onc(C)c23)cc1 | inconclusive: 28.2 µM [inhibitor, partial curve, poor fit] | – |
| CCCn1c(=O)c2ccc(C(=O)NCC(C)C)cc2n2c(SCc3ccc(F)cc3)nnc12 | inactive | – |
| COc1cccc(CN2CCc3nc(Nc4ccc5c(c4)OCCO5)ncc3C2)c1 | inconclusive: 14.1 µM [inhibitor, partial curve, poor fit] | – |
| O=C1CCCCC(CNC(=O)C2(c3ccccc3)CC2)N1 (stereo not drawn) | inactive | – |
| CC1=C[C@@H](CN(C)CCO)[C@H](C(C)C)C[C@H]1Cc1nnc(-c2ccc(N(C)C)cc2)o1 | inconclusive: 28.2 µM [inhibitor, single point] | – |
| Cc1cc(=O)oc2cc(OCC(=O)N3CCOCC3)ccc12 | inconclusive: 28.2 µM [inhibitor, partial curve, poor fit] | – |
| Oc1c(Cl)cc(Cl)cc1Br | inactive | – |
| Cc1ccsc1CN1CCCCCCNC(=O)[C@@H]2CCC[C@@H]21 | inconclusive: 14.1 µM [inhibitor, partial curve] | – |
| CCn1c(=O)n(-c2ccc(C)c(F)c2)c(=O)c2sc3ccccc3c21 | inconclusive: 1.41 µM [inhibitor, full curve, poor fit] | – |
| Cn1cc(-c2cc(C3=CCOCC3)c3cncn3c2)cn1 | inconclusive: 35.5 µM [inhibitor, partial curve, poor fit] | – |
| CCNC(=O)NC(=O)C(C)Sc1nc(-c2ccco2)nc2ccccc12 (stereo not drawn) | inactive | – |
| COCC(=O)Nc1ccc(N2CCCC2)c(S(=O)(=O)Nc2ccccc2OC)c1 | inconclusive: 22.4 µM [inhibitor, partial curve, poor fit] | – |
